# Experimental data taken from the supplement of paper PMC8728848.
# Some of the results follow.
# B1: AAL (Agrocybe aegerita), Q6WY08 (protein)
# chain: MQGVNIYNISAGTSVDLAAPVTTGDIVTFFSSALNLNAGAGNPNNTTLNLFAENGAYLLHIAHRLQENVIIFNSRQPDGPWLVEQRVSDVANQFAGIDGKAMVTVFDHGDKYQVVINEKTVIQYTKQISGLTLSLSYNATEETSIFSTVVEAVTYTGLALEHHHHHH
# Key:
# Assay in all cases: glycan array binding signal (z-score within array); higher = stronger binding
# Details in all cases: glycan notation: IUPAC condensed, linker removed; mutation: F63H
# [1] = target: Gal(b1-4)GlcNAc(b1-2)[Gal(b1-4)GlcNAc(b1-6)]Man(a1-6)[Gal(b1-4)GlcNAc(b1-2)Man(a1-3)]Man(b1-4)GlcNAc(b1-4)[Fuc(a1-6)]GlcNAc
# How it was run: (§1)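 Glycan array data were curated from 3228 arrays in the Consortium for Functional Glycomics database and kept only where the protein sequence was available. Glycan names were converted to IUPAC-condensed notation, and columns mapping to the same glycan were averaged. The binding signal is a within-array Z-score, averaged across arrays of the same protein sequence at different concentrations or buffers and across linkers. Negative Z-scores can be read as non-binding.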
# [2] = target: Gal(b1-4)GlcNAc(b1-2)[Gal(b1-4)GlcNAc(b1-6)]Man(a1-6)[GlcNAc(b1-4)][Gal(b1-4)GlcNAc(b1-2)Man(a1-3)]Man(b1-4)GlcNAc(b1-4)GlcNAc
# How it was run: as §1
# [3] = target: Gal(b1-4)GlcNAc(b1-2)[Gal(b1-4)GlcNAc(b1-6)]Man(a1-6)[GlcNAc(b1-4)][Gal(b1-4)GlcNAc(b1-2)[Gal(b1-4)GlcNAc(b1-4)]Man(a1-3)]Man(b1-4)GlcNAc(b1-4)[Fuc(a1-6)]GlcNAc
# How it was run: as §1
# [4] = target: Gal(b1-4)GlcNAc(b1-3)Gal(b1-3)GalNAc
# How it was run: as §1
# [5] = target: Gal(b1-4)GlcNAc(b1-3)Gal(b1-3)GlcNAc
# How it was run: as §1
# [6] = target: Gal(b1-4)GlcNAc(b1-3)Gal(b1-4)Glc
# How it was run: as §1
# [7] = target: Gal(b1-4)GlcNAc(b1-3)Gal(b1-4)GlcNAc
# How it was run: as §1
# [8] = target: Gal(b1-4)GlcNAc(b1-3)Gal(b1-4)GlcNAc(b1-2)Man(a1-3)[Gal(b1-4)GlcNAc(b1-3)Gal(b1-4)GlcNAc(b1-2)Man(a1-6)]Man(b1-4)GlcNAc(b1-4)GlcNAc
# How it was run: as §1
# [9] = target: Gal(b1-4)GlcNAc(b1-3)Gal(b1-4)GlcNAc(b1-2)Man(a1-3)[Gal(b1-4)GlcNAc(b1-3)Gal(b1-4)GlcNAc(b1-2)Man(a1-6)]Man(b1-4)GlcNAc(b1-4)[Fuc(a1-6)]GlcNAc
# How it was run: as §1
# [10] = target: Gal(b1-4)GlcNAc(b1-3)Gal(b1-4)GlcNAc(b1-2)[Gal(b1-4)GlcNAc(b1-3)Gal(b1-4)GlcNAc(b1-6)]Man(a1-6)[Gal(b1-4)GlcNAc(b1-3)Gal(b1-4)GlcNAc(b1-2)Man(a1-3)]Man(b1-4)GlcNAc(b1-4)GlcNAc
# How it was run: as §1
# [11] = target: Gal(b1-4)GlcNAc(b1-3)Gal(b1-4)GlcNAc(b1-2)[Gal(b1-4)GlcNAc(b1-3)Gal(b1-4)GlcNAc(b1-6)]Man(a1-6)[Gal(b1-4)GlcNAc(b1-3)Gal(b1-4)GlcNAc(b1-2)Man(a1-3)]Man(b1-4)GlcNAc(b1-4)[Fuc(a1-6)]GlcNAc
# How it was run: as §1
# [12] = target: Gal(b1-4)GlcNAc(b1-3)Gal(b1-4)GlcNAc(b1-3)Gal(b1-4)GlcNAc
# How it was run: as §1
# [13] = target: Gal(b1-4)GlcNAc(b1-3)Gal(b1-4)GlcNAc(b1-3)Gal(b1-4)GlcNAc(b1-2)Man(a1-3)[Gal(b1-4)GlcNAc(b1-3)Gal(b1-4)GlcNAc(b1-3)Gal(b1-4)GlcNAc(b1-2)Man(a1-6)]Man(b1-4)GlcNAc(b1-4)GlcNAc
# How it was run: as §1
# [14] = target: Gal(b1-4)GlcNAc(b1-3)Gal(b1-4)GlcNAc(b1-3)Gal(b1-4)GlcNAc(b1-2)Man(a1-3)[Gal(b1-4)GlcNAc(b1-3)Gal(b1-4)GlcNAc(b1-3)Gal(b1-4)GlcNAc(b1-2)Man(a1-6)]Man(b1-4)GlcNAc(b1-4)[Fuc(a1-6)]GlcNAc
# How it was run: as §1
# [15] = target: Gal(b1-4)GlcNAc(b1-3)Gal(b1-4)GlcNAc(b1-3)Gal(b1-4)GlcNAc(b1-2)[Gal(b1-4)GlcNAc(b1-3)Gal(b1-4)GlcNAc(b1-3)Gal(b1-4)GlcNAc(b1-6)]Man(a1-6)[Gal(b1-4)GlcNAc(b1-3)Gal(b1-4)GlcNAc(b1-3)Gal(b1-4)GlcNAc(b1-2)Man(a1-3)]Man(b1-4)GlcNAc(b1-4)[Fuc(a1-6)]GlcNAc
# How it was run: as §1
# [16] = target: Gal(b1-4)GlcNAc(b1-3)Gal(b1-4)GlcNAc(b1-3)Gal(b1-4)GlcNAc(b1-3)Gal(b1-4)GlcNAc(b1-2)Man(a1-3)[Gal(b1-4)GlcNAc(b1-3)Gal(b1-4)GlcNAc(b1-3)Gal(b1-4)GlcNAc(b1-3)Gal(b1-4)GlcNAc(b1-2)Man(a1-6)]Man(b1-4)GlcNAc(b1-4)GlcNAc
# How it was run: as §1
# [17] = target: Gal(b1-4)GlcNAc(b1-3)Gal(b1-4)GlcNAc(b1-3)Gal(b1-4)GlcNAc(b1-3)Gal(b1-4)GlcNAc(b1-2)Man(a1-3)[Gal(b1-4)GlcNAc(b1-3)Gal(b1-4)GlcNAc(b1-3)Gal(b1-4)GlcNAc(b1-3)Gal(b1-4)GlcNAc(b1-2)Man(a1-6)]Man(b1-4)GlcNAc(b1-4)[Fuc(a1-6)]GlcNAc
# How it was run: as §1
# [18] = target: Gal(b1-4)GlcNAc(b1-3)Gal(b1-4)GlcNAc(b1-3)Gal(b1-4)GlcNAc(b1-3)Gal(b1-4)GlcNAc(b1-2)[Gal(b1-4)GlcNAc(b1-3)Gal(b1-4)GlcNAc(b1-3)Gal(b1-4)GlcNAc(b1-3)Gal(b1-4)GlcNAc(b1-6)]Man(a1-6)[Gal(b1-4)GlcNAc(b1-3)Gal(b1-4)GlcNAc(b1-3)Gal(b1-4)GlcNAc(b1-3)Gal(b1-4)GlcNAc(b1-2)Man(a1-3)]Man(b1-4)GlcNAc(b1-4)[Fuc(a1-6)]GlcNAc
# How it was run: as §1
# [19] = target: Gal(b1-4)GlcNAc(b1-3)Gal(b1-4)GlcNAc(b1-3)Gal(b1-4)GlcNAc(b1-3)Gal(b1-4)GlcNAc(b1-3)Gal(b1-4)GlcNAc(b1-2)Man(a1-3)[Gal(b1-4)GlcNAc(b1-3)Gal(b1-4)GlcNAc(b1-3)Gal(b1-4)GlcNAc(b1-3)Gal(b1-4)GlcNAc(b1-3)Gal(b1-4)GlcNAc(b1-2)Man(a1-6)]Man(b1-4)GlcNAc(b1-4)GlcNAc
# How it was run: as §1
# [20] = target: Gal(b1-4)GlcNAc(b1-3)Gal(b1-4)GlcNAc(b1-3)Gal(b1-4)GlcNAc(b1-3)Gal(b1-4)GlcNAc(b1-3)Gal(b1-4)GlcNAc(b1-2)Man(a1-3)[Gal(b1-4)GlcNAc(b1-3)Gal(b1-4)GlcNAc(b1-3)Gal(b1-4)GlcNAc(b1-3)Gal(b1-4)GlcNAc(b1-3)Gal(b1-4)GlcNAc(b1-2)Man(a1-6)]Man(b1-4)GlcNAc(b1-4)[Fuc(a1-6)]GlcNAc
# How it was run: as §1
# [21] = target: Gal(b1-4)GlcNAc(b1-3)Gal(b1-4)GlcNAc(b1-3)Gal(b1-4)GlcNAc(b1-3)Gal(b1-4)GlcNAc(b1-3)Gal(b1-4)GlcNAc(b1-2)[Gal(b1-4)GlcNAc(b1-3)Gal(b1-4)GlcNAc(b1-3)Gal(b1-4)GlcNAc(b1-3)Gal(b1-4)GlcNAc(b1-3)Gal(b1-4)GlcNAc(b1-6)]Man(a1-6)[Gal(b1-4)GlcNAc(b1-3)Gal(b1-4)GlcNAc(b1-3)Gal(b1-4)GlcNAc(b1-3)Gal(b1-4)GlcNAc(b1-3)Gal(b1-4)GlcNAc(b1-2)Man(a1-3)]Man(b1-4)GlcNAc(b1-4)[Fuc(a1-6)]GlcNAc
# How it was run: as §1
# [22] = target: Gal(b1-4)GlcNAc(b1-3)Gal(b1-4)GlcNAc(b1-3)Gal(b1-4)GlcNAc(b1-3)Gal(b1-4)GlcNAc(b1-3)Gal(b1-4)GlcNAc(b1-3)Gal(b1-4)GlcNAc(b1-2)Man(a1-3)[Gal(b1-4)GlcNAc(b1-3)Gal(b1-4)GlcNAc(b1-3)Gal(b1-4)GlcNAc(b1-3)Gal(b1-4)GlcNAc(b1-3)Gal(b1-4)GlcNAc(b1-3)Gal(b1-4)GlcNAc(b1-2)Man(a1-6)]Man(b1-4)GlcNAc(b1-4)GlcNAc
# How it was run: as §1
# [23] = target: Gal(b1-4)GlcNAc(b1-3)Gal(b1-4)GlcNAc(b1-3)GalNAc
# How it was run: as §1
binder,measurement,setting,value
B1,glycan array binding signal (z-score),[1],0.344
same,glycan array binding signal (z-score),[2],4.37
same,glycan array binding signal (z-score),[3],-0.265
same,glycan array binding signal (z-score),[4],0.161
same,glycan array binding signal (z-score),[5],-0.069
same,glycan array binding signal (z-score),[6],0.09
same,glycan array binding signal (z-score),[7],-0.389
same,glycan array binding signal (z-score),[8],0.457
same,glycan array binding signal (z-score),[9],0.11
same,glycan array binding signal (z-score),[10],-0.089
same,glycan array binding signal (z-score),[11],0.344
same,glycan array binding signal (z-score),[12],0.719
same,glycan array binding signal (z-score),[13],0.028
same,glycan array binding signal (z-score),[14],1.22
same,glycan array binding signal (z-score),[15],0.666
same,glycan array binding signal (z-score),[16],0.144
same,glycan array binding signal (z-score),[17],0.394
same,glycan array binding signal (z-score),[18],0.63
same,glycan array binding signal (z-score),[19],-0.037
same,glycan array binding signal (z-score),[20],-0.033
same,glycan array binding signal (z-score),[21],-0.207
same,glycan array binding signal (z-score),[22],0.376
same,glycan array binding signal (z-score),[23],-0.163
